# Hit rate of the full screen: of about 310,000 compounds, about 11,000 (3.5%) were called active. This list was built around the results that the source calls inconclusive (neither active nor inactive); the mix of calls is not that of the screen. Calls come from the whole dose curve; as a rule, active = well fitted inhibition curve with a large enough effect; inconclusive = small, poorly fitted or top-dose-only effect, or effect the other way; inactive = flat fitted curve, though single readings scatter. Potencies of inconclusive entries are left out as doubtful fits.
# Test: VP16 counterscreen qHTS for inhibitors of ROR gamma transcriptional activity;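 note: Gal4-VP16 expression switched on by copper sulfate through the metallothionein promoter; nearly all actives have a fitted effect of over 50% in size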
# Conditions: Drosophila S2 Gal4-VP16 UAS-luciferase, luminescence, 20 h; activity, negative = inhibition: at 53.6 µM (top of the series)
# % is set by controls: 0 for no effect and ±100 for the full control effect; potency is the fitted concentration of half-maximal effect; tags give direction and shape of the fitted curve.
SMILES,Potency,"activity, negative = inhibition"
CCCCC#Cc1cncc(C(=O)N/N=C/c2cccc(OC)c2)c1,"inconclusive [inhibitor, single point]",
COCCCN(C(=S)Nc1cc(C)cc(C)c1)C(C)c1ccncc1 (stereo not given),"inconclusive [inhibitor, single point]",
CCN(CC)S(=O)(=O)c1ccc(N2C(=O)CC2(/C=C/c2ccccc2)C(=O)NC2CCCC2)cc1 (stereo not given),,inactive: 2.73%
O=C(N/N=C/c1cc(Br)c(O)c(Br)c1O)c1cccnc1,"inconclusive [inhibitor, single point]",
COc1cccc(N/C=C/C(=O)c2ccc(C)cc2)c1,"inconclusive [inhibitor, single point]",
CC(C)(C)CC(C)(C)NC(=S)Nc1ccc(S(=O)(=O)N2CCOCC2)cc1,"inconclusive [inhibitor, single point]",
CCOC(=O)c1ccc(N/C=C\C(=O)c2cccc(OC)c2)cc1,,inactive: -15%
C=CCn1c(O)c(N=NC(=S)Nc2ccccc2F)c2cc(S(=O)(=O)N3CCOCC3)ccc21,active: 2 µM,
CCOc1cc(/C=N/N=C(N)N)ccc1OCc1ccc(Cl)cc1,active: 8.91 µM,
O=[N+]([O-])c1cccc(-c2ccc(/C=N/NC(=S)NCc3ccco3)o2)c1,active: 3.16 µM,
CC(C)(C)OC(=O)[C@H](Cc1ccccc1)NC(=O)c1nc[nH]c1C(=O)NCc1ccccc1,active: 15.8 µM,
COC(=O)c1ccc(CSc2nnc(NC(=O)C3CC(=O)N(c4ccc5c(c4)OCCO5)C3)s2)cc1 (stereo not given),"inconclusive [activator, single point]",
Cc1ccccc1OCc1nc2ccccc2[nH]1,,inactive: -12.6%
CCOc1cc(CNCCO)cc(Br)c1OCc1ccc(Cl)cc1Cl,"inconclusive [inhibitor, single point]",
N#CC(C#N)=C1c2cc(S(=O)(=O)NCCO)ccc2-c2ccc(S(=O)(=O)NCCO)cc21,"inconclusive [inhibitor, single point]",
COc1ccc(CNC(=O)CN(C(=O)c2csnn2)c2ccc(F)cc2)cc1,,inactive: 2.51%
CCN(CC)C(=O)Oc1ccc2c(c1)O/C(=C\c1ccco1)C2=O,"inconclusive [activator, single point]",
CC1(C)CC(=O)C(N=Nc2ccc(C(F)(F)F)cc2[N+](=O)[O-])=C(O)C1,"inconclusive [inhibitor, single point]",
CCCCCCCCn1cnc2c(N)c(C)c(C)cc21,"inconclusive [inhibitor, single point]",
Cc1ccc(-c2nc(CS(=O)CC(=O)NC3CCCCC3)c(C)o2)cc1 (stereo not given),,inactive: -1.13%
O=C(NC(=S)NCc1ccco1)c1cccc(Cl)c1,active: 8.91 µM,
CC(C)=CCC(C)(C)CNC(=O)NC1CCCCC1,,inactive: -4.2%
Cc1cc(NCc2ccccn2)n2nc(C)c(-c3ccccc3)c2n1,active: 0.316 µM,
Cc1ccc(C(=O)NC(=S)Nc2ccc3[nH]c(=O)[nH]c3c2)cc1,,inactive: -7.38%
Cc1cc(-c2cc(-c3ccccc3)on2)nc(NCC2CC2)n1,,inactive: 9.44%

SMILES,Potency,"activity, negative = inhibition"
CCC1Oc2ccc(C)cc2N(CC(=O)NCCCN2CCCCC2C)C1=O (stereo not given),"inconclusive [inhibitor, partial curve, poor fit]",
CC(C)(C)NC(=S)NNC(=O)c1ccncc1,active: 17.8 µM,
Nc1cccc(N)c1,,inactive: -4.59%
Cc1[nH]n(-c2ccccc2)c(=O)c1/C=C1/C=c2ccccc2=N1,"inconclusive [activator, single point]",
O=C(COc1ccc(Cl)cc1)NNC(=S)NCc1ccccc1,active: 5.62 µM,
O=C(N/N=C/C=C/c1ccccc1)c1cc2c(ccc3ccccc32)o1,"inconclusive [inhibitor, single point]",
CC(C)Oc1ccc(CCC(=O)NNC(=S)NCc2ccccc2)cc1,"inconclusive [inhibitor, single point]",
O=C(CSC(=S)N1CCCCC1)c1ccccc1,"inconclusive [inhibitor, single point]",
O=C(O)c1cc2ccccc2cc1Nc1ccccc1,,inactive: -5.6%
CCOc1ccccc1NC(=O)C1CCN(c2nc(-c3ccc(OC)cc3)no2)CC1,"inconclusive [inhibitor, single point]",
COc1ccc(Cn2nnnc2C(c2ccc(F)cc2)N2CCN(C3CCCC3)CC2)cc1 (stereo not given),,inactive: 0.918%
Nc1nnc(SCC(=O)Nc2ccc(N3CCOCC3)c(Cl)c2)s1,"inconclusive [inhibitor, single point]",
COc1ccc(-n2nnnc2SCC(=O)Nc2ccc3c(c2)OCCO3)c(OC)c1,"inconclusive [inhibitor, single point]",
CN1CCN(C(c2cccnc2)c2ccc3cccnc3c2O)CC1 (stereo not given),,inactive: -4.72%
O=C(c1cc(-c2ccc(Br)cc2)on1)N1CCOCC1,"inconclusive [inhibitor, single point]",
O=Nc1c(O)n(Cc2ccc(Cl)cc2)c2ccccc12,active: 11.2 µM,
Cc1ccc(C)c(NC(=S)NCc2ccccc2)c1,active: 5.01 µM,
Cc1cc(OCc2cc(C(=O)N3CCC(Oc4cccnc4)CC3)no2)cc(C)c1Cl,"inconclusive [inhibitor, single point]",
COC(=O)C1C(=O)c2c([nH]c(C(=O)OCCSC)c2C)CC1C (stereo not given),"inconclusive [inhibitor, partial curve]",
N/C(=N\OC(=O)c1cccc2ccccc12)c1cccc([N+](=O)[O-])c1,"inconclusive [inhibitor, partial curve, poor fit]",
Cc1c(Cl)cccc1NC(=S)NCCc1ccccn1,active: 8.91 µM,
CN1CCN(C(=O)c2cnn(-c3ccccc3)c2NC(=O)c2ccc([N+](=O)[O-])cc2)CC1,,inactive: -10.9%
Cc1cccnc1NC(=O)c1sc2ccccc2c1Cl,active: 8.91 µM,
O=C(/C=C/c1ccc(Br)cc1)c1ccc(NC2=NCCCS2)cc1,"inconclusive [inhibitor, single point]",
Cc1ccc(NC(=O)COc2ccc(C(=O)c3ccccc3)cc2)c(O)c1,"inconclusive [inhibitor, single point]",

SMILES,Potency,"activity, negative = inhibition"
O=C(NC1CCCCCCC1)c1ccc(Br)o1,,inactive: 17%
CCNc1nc(NCC)nc(ON=C(C)C)n1,,inactive: -5.3%
O=C(COc1cccc2ccccc12)N/N=C/C=C/c1ccccc1,"inconclusive [inhibitor, single point]",
Cc1cc(C)cc(NS(=O)(=O)c2ccc(NC(=S)NC(=O)c3cccs3)cc2)c1,active: 1 µM,
CCOc1ccc(NCc2nnc(SCc3ccc(Cl)cc3)n2-c2ccccc2)cc1,"inconclusive [activator, single point]",
CC(C)NC(=S)N1CCn2c(nc3ccccc32)C1,"inconclusive [activator, single point]",
C=C(C)[C@H]1CC=C(C)/C(=N/NC(=O)CNc2ccccc2OC)C1,"inconclusive [inhibitor, single point]",
C/C(=N\NC(=O)CNC(=O)C(c1ccccc1)c1ccccc1)c1ccc(C(C)(C)C)cc1,"inconclusive [inhibitor, single point]",
CCN1CCN(Cc2ccc(OCc3ccccc3)cc2)CC1,"inconclusive [inhibitor, single point]",
COc1ccc(NC2CCCN(C(=O)CSc3ccccn3)C2)cc1OC (stereo not given),,inactive: 14.1%
C=C(C(C)=O)C(O)c1cccc(Br)c1 (stereo not given),,inactive: 13.3%
CCOc1cc(C(=O)NCC2CCCO2)cc(OCC)c1OCC (stereo not given),,inactive: -1.13%
COc1ccc(C2CC3(CC(C)(C)NC(=S)N3)Oc3cc(O)cc(C)c32)cc1 (stereo not given),"inconclusive [inhibitor, single point]",
O=C(c1cc(COc2ccc(F)cc2Cl)on1)N1C[C@H]2CC[C@H]1C2,"inconclusive [activator, partial curve]",
CCCS(=O)(=O)N1CCC(C(=O)c2cccc(C(F)(F)F)c2)CC1,"inconclusive [inhibitor, single point]",
C=C1CCC[C@]2(C)C[C@H]3OC(=O)C(CN4CCCCC4CO)[C@H]3CC12 (stereo not given in full),"inconclusive [inhibitor, single point]",
CC(C)OCCCNC(=O)C(NS(=O)(=O)c1ccc2c(c1)c(=O)n(C)c(=O)n2C)c1ccccc1 (stereo not given),,inactive: -2.12%
C=CCNC(=O)/C(C#N)=C/c1ccccc1[N+](=O)[O-],"inconclusive [activator, single point]",
C=CCn1c(COc2ccccc2)nc2ccccc21,"inconclusive [inhibitor, full curve, poor fit]",
c1nc(Nc2ccc(N3CCOCC3)cc2)c2ccsc2n1,"inconclusive [activator, full curve]",
CCN(CCCNC(=O)CCn1c(=S)[nH]c2cc3c(cc2c1=O)OCO3)c1cccc(C)c1,"inconclusive [inhibitor, single point]",
CCCCn1c(O)c(N=Nc2ccccn2)c2ccccc21,"inconclusive [inhibitor, single point]",
Clc1ccc(/C=N/Nc2nn[nH]n2)cc1,,inactive: 1.41%
Cc1ccc(Cn2nc(-c3ccccc3)nc2-c2ccccc2)cc1,"inconclusive [inhibitor, single point]",
O=C1CC(Sc2ccc(Cl)cc2)C(=O)N1c1ccc2c(c1)OCCO2 (stereo not given),"inconclusive [inhibitor, single point]",
